What follows are compounds tested on NCI-H322M. Details: Homo sapiens, five-dose.
Format: cell-based

Which GI50 does the source give for `N#Cc1c(N)nc(S)nc1-c1ccc(Cl)cc1Cl` [Compound 1c, 4-Amino-6–(2,4-dichlorophenyl)-2-mercaptopyrimidine-5-carbonitrile] here?
Its GI50 is 18.1 µM.

Same assay, conditions: Homo sapiens, five-dose, read-out: LC50 (the source's name)

Which CC50 does the source give for `N#Cc1c(N)nc(S)nc1-c1ccc(Cl)cc1Cl` [Compound 1c, 4-Amino-6–(2,4-dichlorophenyl)-2-mercaptopyrimidine-5-carbonitrile] here?
Its CC50 is 81.3 µM.

Same assay, conditions: Homo sapiens, one dose 10^-5 M, 48 h, read-out: % growth

For `N=C(NN=Cc1ccc(Br)cc1)c1c(N)nc(S)nc1-c1ccc(Cl)cc1` [Compound 4k, 4-amino-N'-[(4-bromophenyl)methylene]-6–(4-chlorophenyl)-2-mercapto pyrimidine-5-carboximidohydrazide], which activity at 10 µM is on record?
The activity at 10 µM was 82.4%.

For `N=C(NN=Cc1ccc([N+](=O)[O-])cc1)c1c(N)nc(S)nc1-c1ccc(Cl)cc1Cl` [Compound 4o, 4-amino-6–(2,4-dichlorophenyl)-2-mercapto-N'-[(4-nitrophenyl)methylene] pyrimidine-5-carboximidohydrazide], which activity at 10 µM is on record?
The activity at 10 µM was 100%.

For `N=C(NN=Cc1ccc(Cl)cc1Cl)c1c(N)nc(S)nc1-c1ccc(Cl)cc1` [Compound 4l, 4-amino-6–(4-chlorophenyl)-N'-[(2,4-dichlorophenyl)methylene]-2-mercapto pyrimidine-5-carboximidohydrazide], which activity at 10 µM is on record?
Its activity at 10 µM is 77.3%.

With `CN(C)c1ccc(-c2nc(S)nc(N)c2-c2ncn[nH]2)cc1` [Compound 5a, 4-Aamino-6-[4-(dimethylamino)phenyl]-5-(1H-1,2,4-triazol-5-yl)pyrimidine-2-thiol] as the compound, how does the activity at 10 µM read?
The activity at 10 µM was 116%.

`N=C(NN=Cc1ccc(Cl)cc1)c1c(N)nc(S)nc1-c1ccc(Cl)cc1` [Compound 4h, 4-amino-6–(4-chlorophenyl)-N'-[(4-chlorophenyl)methylene]-2-mercapto pyrimidine-5-carboximidohydrazide] was tested. Which activity at 10 µM did it give?
Its activity at 10 µM is 87.3%.

`CN(C)c1ccc(-c2nc(S)nc(N)c2C(=N)NN=Cc2ccc(Cl)cc2Cl)cc1` [Compound 4f, 4-amino-N'-[(2,4-dichlorophenyl)methylene]-6-[4-(dimethylamino)phenyl]-2-mercapto pyrimidine-5-carboximidohydrazide] was tested. Which activity at 10 µM did it give?
Its activity at 10 µM is 95.5%.

With `N=C(NN=Cc1ccccc1)c1c(N)nc(S)nc1-c1ccc(Cl)cc1` [Compound 4g, 4-amino-6–(4-chlorophenyl)-2-mercapto-N'-[phenylmethylene]pyrimidine-5-carboximido hydrazide] as the compound, how does the activity at 10 µM read?
Its activity at 10 µM is 81.5%.

Which activity at 10 µM does the source give for `COc1ccc(C=NNC(=N)c2c(N)nc(S)nc2-c2ccc(Cl)cc2)cc1` [Compound 4j, 4-amino-6–(4-chlorophenyl)-2-mercapto-N'-[(4-methoxyphenyl)methylene] pyrimidine-5-carboximidohydrazide] here?
The activity at 10 µM was 96.8%.

For `Nc1nc(S)nc(-c2ccc(Cl)cc2Cl)c1-c1ncn[nH]1` [Compound 5c, 4-Amino-6–(2,4-dichlorophenyl)-5-(1H-1,2,4-triazol-5-yl)pyrimidine-2-thiol], which activity at 10 µM is on record?
The activity at 10 µM was 102%.

For `N=C(NN=Cc1ccccc1)c1c(N)nc(S)nc1-c1ccc(Cl)cc1Cl` [Compound 4m, 4-Amino-6–(2,4-dichlorophenyl)-2-mercapto-N'-[phenylmethylene]pyrimidine-5-carboximidohydrazide], which activity at 10 µM is on record?
Its activity at 10 µM is 99.1%.

`COc1ccc(/C=N\NC(=N)c2c(N)nc(S)nc2-c2ccc(N(C)C)cc2)cc1` [Compound 4d, 4-amino-N'-[(1Z)-(4-methoxyphenyl)methylene]-6-[4-(dimethylamino)phenyl]-2-mercapto pyrimidine-5-carboximidohydrazide] was tested. Which activity at 10 µM did it give?
Its activity at 10 µM is 95.7%.

Which activity at 10 µM does the source give for `COc1ccc(C=NNC(=N)c2c(N)nc(S)nc2-c2ccc(Cl)cc2Cl)cc1` [Compound 4p, 4-amino-6–(2,4-dichlorophenyl)-2-mercapto-N'-[(4-methoxyphenyl)methylene] pyrimidine-5-carboximidohydrazide] here?
The activity at 10 µM was 104%.

Which activity at 10 µM does the source give for `CN(C)c1ccc(-c2nc(S)nc(N)c2C(=N)NN=Cc2ccc(Cl)cc2)cc1` [Compound 4b, 4-amino-N'-[(4-chlorophenyl)methylene]-6-[4-(dimethylamino)phenyl]-2-mercapto pyrimidine-5-carboximidohydrazide] here?
The activity at 10 µM was 98.5%.

`CN(C)c1ccc(-c2nc(S)nc(N)c2C(=N)NN=Cc2ccc(Br)cc2)cc1` [Compound 4e, 4-amino-N'-[(4-bromophenyl)methylene]-6-[4-(dimethylamino)phenyl]-2-mercapto pyrimidine-5-carboximidohydrazide] was tested. Which activity at 10 µM did it give?
Its activity at 10 µM is 98.2%.

With `CN(C)c1ccc(-c2nc(S)nc(N)c2C#N)cc1` [Compound 1a] as the compound, how does the activity at 10 µM read?
Its activity at 10 µM is 101%.

With `N=C(NN=Cc1ccc(Br)cc1)c1c(N)nc(S)nc1-c1ccc(Cl)cc1Cl` [Compound 4q, 4-amino-N'-[(4-bromophenyl)methylene]-6–(2,4-dichlorophenyl)-2-mercapto pyrimidine-5-carboximidohydrazide] as the compound, how does the activity at 10 µM read?
The activity at 10 µM was 104%.

With `Nc1nc(S)nc(-c2ccc(Cl)cc2)c1-c1ncn[nH]1` [Compound 5b, 4-Amino-6–(4-chlorophenyl)-5-(1H-1,2,4-triazol-5-yl)pyrimidine-2-thiol] as the compound, how does the activity at 10 µM read?
Its activity at 10 µM is 98.2%.

Which activity at 10 µM does the source give for `N=C(NN=Cc1ccc(Cl)cc1)c1c(N)nc(S)nc1-c1ccc(Cl)cc1Cl` [Compound 4n, 4-Amino-N'-[(4-chlorophenyl)methylene]-6–(2,4-dichlorophenyl)-2-mercapto pyrimidine-5-carboximidohydrazide] here?
Its activity at 10 µM is 102%.

`CN(C)c1ccc(-c2nc(S)nc(N)c2C(=N)NN=Cc2ccccc2)cc1` [Compound 4a, 4-Amino-6-[4-(dimethylamino)phenyl]-2-mercapto-N'-[phenylmethylene] pyrimidine-5-carboximidohydrazide] was tested. Which activity at 10 µM did it give?
The activity at 10 µM was 99.2%.

Which activity at 10 µM does the source give for `N=C(NN=Cc1ccc([N+](=O)[O-])cc1)c1c(N)nc(S)nc1-c1ccc(Cl)cc1` [Compound 4i, 4-amino-6–(4-chlorophenyl)-2-mercapto-N'-[(4-nitrophenyl)methylene] pyrimidine-5-carboximidohydrazide] here?
Its activity at 10 µM is 88.9%.

How did the activity at 10 µM turn out when `N#Cc1c(N)nc(S)nc1-c1ccc(Cl)cc1Cl` [Compound 1c, 4-Amino-6–(2,4-dichlorophenyl)-2-mercaptopyrimidine-5-carbonitrile] was run?
The activity at 10 µM was 96.5%.

For `N=C(NN=Cc1ccc(Cl)cc1Cl)c1c(N)nc(S)nc1-c1ccc(Cl)cc1Cl` [Compound 4r, 4-amino-6–(2,4-dichlorophenyl)-N'-[(2,4-dichlorophenyl)methylene]-2-mercapto pyrimidine-5-carboximidohydrazide], which activity at 10 µM is on record?
Its activity at 10 µM is 107%.

How did the activity at 10 µM turn out when `N#Cc1c(N)nc(S)nc1-c1ccc(Cl)cc1` [Compound 1b] was run?
Its activity at 10 µM is 76.1%.

Same assay, conditions: five-dose

How did the TGI turn out when `N#Cc1c(N)nc(S)nc1-c1ccc(Cl)cc1Cl` [Compound 1c, 4-Amino-6–(2,4-dichlorophenyl)-2-mercaptopyrimidine-5-carbonitrile] was run?
The TGI was 38.40 µM.

Same assay, conditions: one dose 10^-5 M, 48 h

With “3-Amino-4-[4-(dimethylamino)phenyl]-1H-pyrazolo[3,4-d]pyrimidine-6-thiol [Compound 3a]” as the compound, how does the “% growth” value read?
The value was 101.18%.

Which “% growth” value does the source give for “3-Amino-4–(4-chlorophenyl)-1H-pyrazolo[3,4-d] pyrimidine-6-thiol [Compound 3b]” here?
The value was 106.41%.

“4-Amino-6-[4-(dimethylamino)phenyl]-2-mercaptopyrimidine-5-carboximidohydrazide [Compound 2a]” was tested. Which “% growth” value did it give?
The value was 101.58%.

For “4-Amino-6–(4-chlorophenyl)-2-mercaptopyrimidine-5-carboximidohydrazide [Compound 2b]”, which “% growth” value is on record?
Its value is 104.22%.

For “3-Amino-4–(2,4-dichlorophenyl)-1H-pyrazolo[3,4-d] pyrimidine-6-thiol [Compound 3c]”, which “% growth” value is on record?
The value was 106.23%.

Which “% growth” value does the source give for “4-Amino-6–(2,4-dichlorophenyl)-2-mercaptopyrimidine-5-carboximidohydrazide [Compound 2c]” here?
The value was 97.26%.
